Measured values taken from patent US11566057B2, “Long-acting co-agonists of the glucagon and GLP-1 receptors” (Merck Sharp & Dohme Corp., priority 2017, dated 2023).
Read-outs that look alike come from different tables or passages of the source. Part of at least one peptide drawing is inferred or uncertain, most often the ends. At least one structure is not confirmed: it was looked up by name or label, or the drawing left a doubt. Some entries share one result that the patent states for a list of compounds. Numbered stars: 1 amine (or outer) side, 2 acyl side, 3 side chain; on linkers, the order of the positions; unused ones are H or OH. Square brackets hold non-standard residues; d marks the D form. Side chains are listed from the residue outwards. Peptide text beside a SMILES is read from it. * marks the point of attachment. Phe(4-CH2NH2) = NCc1ccc(C[C@H](N)C(=O)O)cc1; C18 diacid = O=C(O)CCCCCCCCCCCCCCCCC(=O)*; C16 diacid = O=C(O)CCCCCCCCCCCCCCC(=O)*; γGlu = O=C(O)[C@H](CCC(=O)[*:2])N[*:1]; Met(O2) = CS(=O)(=O)CC[C@H](N)C(=O)O; Palmitoyl = CCCCCCCCCCCCCCCC(=O)*; αMeF = C[C@](N)(Cc1ccccc1)C(=O)O; AEEA = NCCOCCOCC(=O)O; Aib = CC(C)(N)C(=O)O

What was measured:
human GCGR = target: T1, human GCGR (Homo sapiens, UniProt P47871); experiment: cAMP activity assay at the Glucagon receptor (GCGR); format: cell-based; settings: for hGCGR/hGLP1R (hTone): ratio of GCGR EC50 to GLP1R EC50
T1 construct: expressed in transfected cells; growth medium holds Blasticidin and Hygromycin
T1 sequence (P47871 26-477): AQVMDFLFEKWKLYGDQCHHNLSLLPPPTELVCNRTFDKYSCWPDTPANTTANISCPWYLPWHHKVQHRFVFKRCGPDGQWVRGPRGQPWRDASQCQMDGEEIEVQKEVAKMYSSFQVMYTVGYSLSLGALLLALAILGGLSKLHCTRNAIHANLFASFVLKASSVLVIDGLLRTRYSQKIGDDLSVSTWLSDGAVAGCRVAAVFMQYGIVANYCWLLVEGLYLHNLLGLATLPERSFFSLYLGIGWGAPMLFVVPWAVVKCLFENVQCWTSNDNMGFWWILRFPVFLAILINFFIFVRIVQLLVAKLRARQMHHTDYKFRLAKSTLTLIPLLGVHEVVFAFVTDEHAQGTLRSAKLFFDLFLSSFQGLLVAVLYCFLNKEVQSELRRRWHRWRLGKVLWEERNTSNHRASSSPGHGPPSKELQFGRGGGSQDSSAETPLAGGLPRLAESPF
Protocol: (§1) Activity of the peptides at the Glucagon receptor (GCGR) and GLP-1 receptor (GLP1R) was measured in a cAMP activity assay.
(§2) GCG/GLP-1 receptor co-agonist peptides were dissolved in 100% DMSO (dimethyl sulfoxide) and serially diluted to generate 10 point titrations. The peptide solutions were then transferred into 384-well assay plates (150 nL/well). Assay ready frozen cells expressing human GLP1R or human GCGR were suspended in growth media consisting of DMEM medium (GIBCO®), 10% FBS (GIBCO®), 1×NEAA(GIBCO®), 1×P/S (GIBCO®), 10 ug/mL Blasticidin (GIBCO®) and 200 μg/mL Hygromycin (GIBCO®). […] The cell suspensions (15 μL) were then added to the assay plates containing the peptide solutions (30,000 cells/well for human GCGR; 10,000 cells/well for human GLP1R). The cells were incubated for 1 hour at room temperature in the dark. Production of cAMP was determined using HitHunter™ cAMPXS kits (DiscoverX) following manufacturer protocol. The plates were incubated for overnight at room temperature in the dark. Luminescence was measured using an EnVision Multilabel plate reader (Perkin Elmer). Native GLP-1 and Glucagon (Bachem) are used as control peptides. EC50 values were calculated using uses a 4 parameter logistic fit based on the Levenberg-Marquardt algorithm.

human GLP1R = target: T2, human GLP1R (Homo sapiens, UniProt P43220); experiment: cAMP activity assay at the GLP-1 receptor (GLP1R); format: cell-based
T2 construct: expressed in transfected cells; growth medium holds Blasticidin and Hygromycin
T2 sequence (P43220 24-463): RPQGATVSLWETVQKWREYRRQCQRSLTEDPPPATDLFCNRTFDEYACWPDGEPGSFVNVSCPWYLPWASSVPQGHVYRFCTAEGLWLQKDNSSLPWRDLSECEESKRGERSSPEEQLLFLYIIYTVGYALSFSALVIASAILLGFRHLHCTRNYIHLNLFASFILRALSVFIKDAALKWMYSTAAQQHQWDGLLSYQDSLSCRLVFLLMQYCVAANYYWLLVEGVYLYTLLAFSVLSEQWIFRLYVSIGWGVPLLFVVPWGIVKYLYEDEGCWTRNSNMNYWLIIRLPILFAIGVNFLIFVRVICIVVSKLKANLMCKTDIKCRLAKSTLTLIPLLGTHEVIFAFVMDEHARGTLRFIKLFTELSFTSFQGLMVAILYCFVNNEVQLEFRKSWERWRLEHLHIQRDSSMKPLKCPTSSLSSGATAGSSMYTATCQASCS
Protocol: as §1, §2

[1] = summary statement: EC50 at each of the glucagon and GLP-1 receptors, read-out: EC50 at the glucagon receptor
[2] = summary statement: EC50 at each of the glucagon and GLP-1 receptors, read-out: EC50 at the GLP-1 receptor
[3] = cells expressing human GCGR, cAMP production, buffer with or without 20% human serum (not stated which), read-out: GCGR EC50 human
[4] = cells expressing human GLP1R, cAMP production, buffer with or without 20% human serum (not stated which), read-out: GLP1R EC50 human

Row | Compound | hGCGR/hGLP1R (hTone) (human GCGR) | EC50 (human GCGR; [1]) [nM] | EC50 (human GLP1R; [2]) [nM] | EC50 (human GCGR; [3]) [nM] | EC50 (human GLP1R; [4]) [nM]
1 | CC(C)C[C@H](NC(=O)[C@H](Cc1ccc(O)cc1)NC(=O)[C@H](CCCCN)NC(=O)[C@H](CO)NC(=O)[C@H](Cc1ccc(O)cc1)NC(=O)[C@H](CC(=O)O)NC(=O)[C@H](CO)NC(=O)[C@@H](NC(=O)[C@H](Cc1ccccc1)NC(=O)[C@@H](NC(=O)CNC(=O)[C@H](CCC(N)=O)NC(=O)C(C)(C)NC(=O)[C@@H](N)Cc1c[nH]cn1)[C@@H](C)O)[C@@H](C)O)C(=O)N[C@@H](CC(=O)O)C(=O)N[C@@H](C)C(=O)N[C@@H](CCCNC(=N)N)C(=O)N[C@@H](C)C(=O)N[C@@H](C)C(=O)N[C@@H](CCCCNC(=O)COCCOCCNC(=O)COCCOCCNC(=O)CC[C@H](NC(=O)CCCCCCCCCCCCCCCCC(=O)O)C(=O)O)C(=O)N[C@@H](CC(=O)O)C(=O)N[C@@](C)(Cc1ccccc1)C(=O)N[C@H](C(=O)N[C@@H](CCC(N)=O)C(=O)N[C@@H](Cc1c[nH]c2ccccc12)C(=O)N[C@@H](CC(C)C)C(=O)N[C@@H](CCS(C)(=O)=O)C(=O)N[C@@H](CC(=O)O)C(=O)N[C@H](C(N)=O)[C@@H](C)O)C(C)C [TP591] (H-H[Aib]QGTFTSDYSKYLDARAAK([AEEA-AEEA-γGlu-C18 diacid])D[αMeF]VQWL[Met(O2)]DT-NH2; N-terminus assumed) | 2.2 | < 5 | < 5 | – | –
2 | CC(C)C[C@H](NC(=O)[C@H](CC(C)C)NC(=O)[C@H](Cc1c[nH]c2ccccc12)NC(=O)[C@H](CCC(N)=O)NC(=O)[C@@H](NC(=O)[C@H](Cc1ccccc1)NC(=O)[C@H](CC(=O)O)NC(=O)[C@H](Cc1ccc(CNC(=O)COCCOCCNC(=O)COCCOCCNC(=O)CC[C@H](NC(=O)CCCCCCCCCCCCCCC(=O)O)C(=O)O)cc1)NC(=O)[C@H](C)NC(=O)[C@H](C)NC(=O)[C@H](CCCNC(=N)N)NC(=O)C(C)(C)NC(=O)[C@H](CC(=O)O)NC(=O)[C@H](CC(C)C)NC(=O)[C@H](Cc1ccc(O)cc1)NC(=O)[C@H](CCCCN)NC(=O)[C@H](CO)NC(=O)[C@H](Cc1ccc(O)cc1)NC(=O)[C@H](CC(=O)O)NC(=O)[C@H](CO)NC(=O)[C@@H](NC(=O)[C@H](Cc1ccccc1)NC(=O)[C@@H](NC(=O)CNC(=O)[C@H](CCC(N)=O)NC(=O)C(C)(C)NC(=O)[C@@H](N)Cc1c[nH]cn1)[C@@H](C)O)[C@@H](C)O)C(C)C)C(=O)N[C@@H](C)C(=O)N[C@H](C(=O)N[C@@H](CCCCN)C(=O)N[C@@H](CCC(N)=O)C(=O)O)[C@@H](C)O [TP663] (H-H[Aib]QGTFTSDYSKYLD[Aib]RAA[Phe(4-CH2NH2)]([AEEA-AEEA-γGlu-C16 diacid])DFVQWLLATKQ-OH; N-terminus assumed) | 0.6 | < 5 | < 5 | 0.22 | 0.38
3 | CC(C)C[C@H](NC(=O)[C@H](CC(C)C)NC(=O)[C@H](Cc1c[nH]c2ccccc12)NC(=O)[C@H](CCC(N)=O)NC(=O)[C@@H](NC(=O)[C@H](Cc1ccccc1)NC(=O)[C@H](Cc1ccc(CNC(=O)COCCOCCNC(=O)COCCOCCNC(=O)CC[C@H](NC(=O)CCCCCCCCCCCCCCC(=O)O)C(=O)O)cc1)NC(=O)[C@H](CCC(N)=O)NC(=O)[C@H](C)NC(=O)[C@H](C)NC(=O)[C@H](CCCNC(=N)N)NC(=O)C(C)(C)NC(=O)[C@H](CC(=O)O)NC(=O)[C@H](CC(C)C)NC(=O)[C@H](Cc1ccc(O)cc1)NC(=O)[C@H](CCCCN)NC(=O)[C@H](CO)NC(=O)[C@H](Cc1ccc(O)cc1)NC(=O)[C@H](CC(=O)O)NC(=O)[C@H](CO)NC(=O)[C@@H](NC(=O)[C@H](Cc1ccccc1)NC(=O)[C@@H](NC(=O)CNC(=O)[C@H](CCC(N)=O)NC(=O)C(C)(C)NC(=O)[C@@H](N)Cc1c[nH]cn1)[C@@H](C)O)[C@@H](C)O)C(C)C)C(=O)N[C@@H](C)C(=O)N[C@H](C(=O)N[C@@H](CCCCN)C(=O)N[C@@H](CCC(N)=O)C(=O)O)[C@@H](C)O [TP665] | 4.9 | < 5 | < 5 | – | –
4 | CC(C)C[C@H](NC(=O)[C@H](CC(C)C)NC(=O)[C@H](Cc1c[nH]c2ccccc12)NC(=O)[C@H](CCC(N)=O)NC(=O)[C@@H](NC(=O)[C@H](Cc1ccccc1)NC(=O)[C@H](CCCCNC(=O)COCCOCCNC(=O)COCCOCCNC(=O)CC[C@H](NC(=O)CCCCCCCCCCCCCCC(=O)O)C(=O)O)NC(=O)[C@H](CCC(N)=O)NC(=O)[C@H](C)NC(=O)[C@H](C)NC(=O)[C@H](CCCNC(=N)N)NC(=O)C(C)(C)NC(=O)[C@H](CC(=O)O)NC(=O)[C@H](CC(C)C)NC(=O)[C@H](Cc1ccc(O)cc1)NC(=O)[C@H](CCCCN)NC(=O)[C@H](CO)NC(=O)[C@H](Cc1ccc(O)cc1)NC(=O)[C@H](CC(=O)O)NC(=O)[C@H](CO)NC(=O)[C@@H](NC(=O)[C@H](Cc1ccccc1)NC(=O)[C@@H](NC(=O)CNC(=O)[C@H](CCC(N)=O)NC(=O)C(C)(C)NC(=O)[C@@H](N)Cc1c[nH]cn1)[C@@H](C)O)[C@@H](C)O)C(C)C)C(=O)N[C@@H](C)C(=O)N[C@H](C(=O)N[C@@H](CCCCN)C(=O)N[C@@H](CCC(N)=O)C(=O)O)[C@@H](C)O [TP664] (H-H[Aib]QGTFTSDYSKYLD[Aib]RAAQK([AEEA-AEEA-γGlu-C16 diacid])FVQWLLATKQ-OH; N-terminus assumed) | 1.7 | < 5 | < 5 | 0.36 | 0.22
5 | CCCCCCCCCCCCCCCC(=O)N[C@@H](CCC(=O)N[C@@H](CCC(=O)NCCCC[C@H](NC(=O)[C@H](CC(=O)O)NC(=O)[C@H](CO)NC(=O)[C@@H](NC(=O)[C@H](Cc1ccccc1)NC(=O)[C@@H](NC(=O)CNC(=O)[C@H](CCC(N)=O)NC(=O)C(C)(C)NC(=O)[C@@H](N)Cc1c[nH]cn1)[C@@H](C)O)[C@@H](C)O)C(=O)N[C@@H](CO)C(=O)N[C@@H](CCCCN)C(=O)N[C@@H](Cc1ccc(O)cc1)C(=O)N[C@@H](CC(C)C)C(=O)N[C@@H](CC(=O)O)C(=O)N[C@@H](C)C(=O)N[C@@H](CCCNC(=N)N)C(=O)N[C@@H](C)C(=O)N[C@@H](C)C(=O)N[C@@H](CCCCNC(=O)COCCOCCNC(=O)COCCOCCNC(=O)CC[C@H](NC(=O)CCCCCCCCCCCCCCCCC(=O)O)C(=O)O)C(=O)N[C@@H](CC(=O)O)C(=O)N[C@@H](Cc1ccccc1)C(=O)N[C@H](C(=O)N[C@@H](CCC(N)=O)C(=O)N[C@@H](Cc1c[nH]c2ccccc12)C(=O)N[C@@H](CC(C)C)C(=O)N[C@@H](CCS(C)(=O)=O)C(=O)N[C@@H](CC(=O)O)C(=O)N[C@H](C(N)=O)[C@@H](C)O)C(C)C)C(=O)O)C(=O)O [TP601] (H-H[Aib]QGTFTSDK([γGlu-γGlu-Palmitoyl])SKYLDARAAK([AEEA-AEEA-γGlu-C18 diacid])DFVQWL[Met(O2)]DT-NH2; N-terminus assumed) | 0.2 | < 5 | < 5 | – | –
6 | CC(C)C[C@H](NC(=O)[C@H](CC(C)C)NC(=O)[C@H](Cc1c[nH]c2ccccc12)NC(=O)[C@H](CCCCNC(=O)COCCOCCNC(=O)COCCOCCNC(=O)CC[C@H](NC(=O)CCCCCCCCCCCCCCC(=O)O)C(=O)O)NC(=O)[C@H](CCC(N)=O)NC(=O)[C@@H](NC(=O)[C@H](Cc1ccccc1)NC(=O)[C@H](CCC(N)=O)NC(=O)[C@H](C)NC(=O)[C@H](C)NC(=O)[C@H](CCCNC(=N)N)NC(=O)C(C)(C)NC(=O)[C@H](CC(=O)O)NC(=O)[C@H](CC(C)C)NC(=O)[C@H](Cc1ccc(O)cc1)NC(=O)[C@H](CCCCN)NC(=O)[C@H](CO)NC(=O)[C@H](Cc1ccc(O)cc1)NC(=O)[C@H](CC(=O)O)NC(=O)[C@H](CO)NC(=O)[C@@H](NC(=O)[C@H](Cc1ccccc1)NC(=O)[C@@H](NC(=O)CNC(=O)[C@H](CCC(N)=O)NC(=O)C(C)(C)NC(=O)[C@@H](N)Cc1c[nH]cn1)[C@@H](C)O)[C@@H](C)O)C(C)C)C(=O)N[C@@H](C)C(=O)N[C@H](C(=O)N[C@@H](CCCCN)C(=O)N[C@@H](CCC(N)=O)C(=O)O)[C@@H](C)O [TP666] | – | – | – | > 19.8 | > 19.8
7 | CC(C)C[C@H](NC(=O)[C@H](Cc1c[nH]c2ccccc12)NC(=O)[C@H](CCC(N)=O)NC(=O)[C@@H](NC(=O)[C@H](Cc1ccccc1)NC(=O)[C@H](CC(=O)O)NC(=O)[C@H](CCC(N)=O)NC(=O)[C@H](C)NC(=O)[C@H](C)NC(=O)[C@H](CCCNC(=N)N)NC(=O)C(C)(C)NC(=O)[C@H](CC(=O)O)NC(=O)[C@H](CC(C)C)NC(=O)[C@H](Cc1ccc(O)cc1)NC(=O)[C@H](CCCCN)NC(=O)[C@H](CO)NC(=O)[C@H](Cc1ccc(O)cc1)NC(=O)[C@H](CC(=O)O)NC(=O)[C@H](CO)NC(=O)[C@@H](NC(=O)[C@H](Cc1ccccc1)NC(=O)[C@@H](NC(=O)CNC(=O)[C@H](CCC(N)=O)NC(=O)[C@@H](CO)NC(=O)[C@@H](N)Cc1c[nH]cn1)[C@@H](C)O)[C@@H](C)O)C(C)C)C(=O)N[C@@H](CC(C)C)C(=O)N[C@@H](CCCCNC(=O)COCCOCCNC(=O)COCCOCCNC(=O)CC[C@H](NC(=O)CCCCCCCCCCCCCCCCC(=O)O)C(=O)O)C(=O)N[C@H](C(=O)N[C@@H](CCCCN)C(=O)N[C@@H](CCC(N)=O)C(=O)O)[C@@H](C)O [TP685] (H-H[dS]QGTFTSDYSKYLD[Aib]RAAQDFVQWLLK([AEEA-AEEA-γGlu-C18 diacid])TKQ-OH; N-terminus and C-terminus assumed) | – | < 5 | < 5 | 4.97 | –
